From PubChem BioAssay AID902 (National Center for Advancing Translational Sciences (NCATS), 2007)
Hit rate of the full screen: of about 130,000 compounds, about 1,900 (1.5%) were called active. The inconclusive results got no clear call from the source; some entries with a clear call stand among them for comparison. Calls come from the whole dose curve; as a rule, active = well fitted cell-killing curve with a large enough effect; inconclusive = small, poorly fitted or top-dose-only effect; inactive = no such curve, though single readings can be large or run the other way. Potencies beside an inconclusive call are fits to weak or partial responses and may not hold up.

test: qHTS Screen for Compounds that Selectively Target Cancer Cells with p53 Mutations: Cytotoxicity of p53ts Cells at the Nonpermissive Temperature; conditions: H1299-p53A138V viability at 39C, ATP luminescence, 24 h; activity change, negative = cell killing: at 46.1 µM (top of the series); note: nearly all actives have a fitted effect of over 55% in size
% is set by controls: 0 for no effect and ±100 for the full control effect; potency is the fitted concentration of half-maximal effect; tags give direction and shape of the fitted curve.

| Compound | Potency | activity change, negative = cell killing |
| --- | --- | --- |
| COc1ccccc1N1CCN(C(=O)c2cnc(N3CCCCC3)c3ccccc23)CC1 | inconclusive: 1.58 µM [cytotoxic, full curve, poor fit] |  |
| Cn1c(=O)c2sccc2n2c(CCCC(=O)Nc3ccc(Oc4ccc(Cl)cc4)cc3)nnc12 | inactive |  |
| COc1ccc(NC(=O)C2C3C=CC(C3)C2C(=O)NCc2ccco2)cc1 (centres undefined) | inactive |  |
| N#Cc1ccccc1NC(=O)c1ccc(-c2ccccc2Cl)o1 | inconclusive: 25.1 µM [cytotoxic, single point] |  |
| Cc1ccccc1NS(=O)(=O)c1ccc2[nH]c3c(c2c1)CCCCC3 | active: 25.1 µM |  |
| O=C(Nc1sc2c(c1C(=O)O)CCCCC2)c1ccco1 | active: 12.6 µM |  |
| CCOc1ccc(NC(=O)c2sc3nc4c(cc3c2N)CN(Cc2ccccc2)CC4)cc1 | inconclusive: 12.6 µM [cytotoxic, single point] |  |
| CCOc1ccc(NC(=O)Cn2nc(SC)c(S(=O)(=O)c3ccccc3)c2N)cc1 | inactive |  |
| Cc1ccc(Cn2ccnc2SCC(=O)Nc2ccccc2C(F)(F)F)cc1 | inconclusive: 0.02 µM [cytotoxic, full curve, poor fit] |  |
| CCOC(=O)c1ccccc1NC(=O)NCc1cccn1Cc1ccc(F)cc1 |  | inconclusive: -30.6% [cytotoxic] |
| CCN(CC)c1ccc(NC(=O)CN2CCN(S(=O)(=O)c3cc(Cl)ccc3OC)CC2)cc1 | inconclusive: 0.158 µM [cytotoxic, partial curve, poor fit] |  |
| COc1ccc(NC(=O)CSc2nc(-c3ccccc3)[nH]c2-c2ccccc2)cc1OC | inconclusive: 20 µM [cytotoxic, single point] |  |
| Cc1oc(-c2ccc(C(=O)NCc3ccccc3F)cc2)nc1COc1ccccc1 | inconclusive: 0.0316 µM [cytotoxic, full curve, poor fit] |  |
| O=C(CCS(=O)(=O)c1nc(-c2cccs2)cc(C(F)(F)F)n1)Nc1ccc(F)c(Cl)c1 | inconclusive: 31.6 µM [cytotoxic, single point] |  |
| COC1CCC(C(=O)c2ccc3nc4c(cc3c2)CCCO4)CC1 (centres undefined) | inconclusive: 10 µM [cytotoxic, partial curve] |  |
| N#Cc1sc2nc(N3CCCCC3)c3c(c2c1N)CCCC3 | inconclusive: 3.55 µM [cytotoxic, single point] |  |
| COc1ccc(CCn2c(=O)c3cccnc3n(CC(=O)Nc3ccc(C)cc3C)c2=O)cc1OC | inconclusive: 12.6 µM [cytotoxic, single point] |  |
| O=C(c1cc(-c2cccc(O)c2)on1)N1CCN(C(c2ccccc2)c2ccccc2)CC1 | inconclusive: 12.6 µM [cytotoxic, single point] |  |
| COC(=O)c1c(SCC(=O)Nc2cccc(Cl)c2C)[nH]c2ccccc2c1=O | inconclusive: 31.6 µM [cytotoxic, single point] |  |
| COc1cccc(-c2nc(SCc3ccc(C)cc3)n3[nH]c(=O)cc3n2)c1 | active: 12.6 µM |  |
| Cc1ccc(NC(=O)c2ccccc2F)nc1 | inconclusive: 15.8 µM [cytotoxic, single point] |  |
| Cc1ccc(C)c(N2CCN(c3nc4ccc(Cl)cc4n4cnnc34)CC2)c1 | inactive |  |

| Compound | Potency | activity change, negative = cell killing |
| --- | --- | --- |
| CCOC(=O)c1cccc(NC(=O)CSc2nc3cc4ccccc4cc3[nH]2)c1 | inconclusive: 20 µM [cytotoxic, single point] |  |
| Cc1cccc(-c2nsc(SCC(=O)NCc3ccco3)n2)c1 | inconclusive: 12.6 µM [cytotoxic, partial curve] |  |
| COC(=O)c1ccc(CSc2nnc(N)s2)cc1 | inactive |  |
| O=S(=O)(Nc1cccc(F)c1)c1ccc2[nH]c3c(c2c1)CCCCC3 | inconclusive: 25.1 µM [cytotoxic, single point] |  |
| COc1ccc(Nc2nc3ccccc3nc2NS(=O)(=O)c2ccc(Cl)cc2)cc1OC | inactive |  |
| Cc1cccc(CNc2ccnc(-c3cccc(NS(C)(=O)=O)c3)n2)c1 | inactive |  |
| Cc1ccc(NC(=O)Cn2c(-c3nonc3N)nc3ccccc32)cc1C | inactive |  |
| CCOc1ccccc1Nc1nnc(-c2cc3cc(Cl)ccc3oc2=O)s1 | inconclusive: 3.98 µM [cytotoxic, full curve, poor fit] |  |
| COc1cc(OC)cc(C(=O)Nc2ccc3c(c2)OCCO3)c1 | active: 3.98 µM |  |
| CCS(=O)(=O)c1oc(-c2ccc(F)cc2)nc1S(=O)(=O)c1ccc(Br)cc1 | active: 1.58 µM |  |
| CC(=O)Nc1cccc(-c2cnc3ccccc3n2)c1 | inconclusive: 15.8 µM [cytotoxic, partial curve] |  |
| CCn1cc(C(=O)NCc2ccccc2OC)c(=O)c2cc(S(=O)(=O)N3CCCCCC3)ccc21 | inactive |  |
| CCc1ccc(NC(=O)c2c(C(=O)Nc3ccccc3)sc3nc(C)cc(=O)n23)cc1 | inconclusive: 25.1 µM [cytotoxic, partial curve, poor fit] |  |
| Cc1ccsc1CCN1C(=O)N(c2ccc(F)cc2)C(=O)C1CC(=O)Nc1ccccc1 (centres undefined) | inconclusive: 12.6 µM [cytotoxic, partial curve] |  |
| Cc1ccc(-n2c(C)cc(C(=O)COC(=O)c3c(C)noc3C)c2C)cc1 | inconclusive: 15.8 µM [cytotoxic, partial curve] |  |
| Cc1cc(C(=O)CN2C(=O)c3ccccc3S2(=O)=O)c(C)n1CC1CCCO1 (centres undefined) | active: 1 µM |  |
| Cc1ccc(Cc2nc3ccccc3nc2SCC(=O)NCCc2ccccc2)cc1 | inconclusive: 1.26 µM [cytotoxic, full curve] |  |
| Cc1cccc(CCNC(=O)c2ccc3c(c2)nc2n3CCCCC2)c1 | active: 7.94 µM |  |
| Cc1ccc(NC(=O)CC2Sc3ccccc3NC2=O)c(Br)c1 (centres undefined) | inconclusive: 10 µM [cytotoxic, partial curve] |  |
| CCc1ccc(C(=O)/C=C/c2cnn(C)c2C)s1 | inconclusive: 10 µM [cytotoxic, single point] |  |
| C=C(C)CN(CC)C(=O)CSc1nc2ncc(Cl)cc2[nH]1 | inactive |  |
| COc1ccc(NC(=O)CSc2nccn2Cc2ccco2)cc1OC | inconclusive: 12.6 µM [cytotoxic, single point] |  |
